Results from PubChem BioAssay AID504648 (National Center for Advancing Translational Sciences (NCATS), 2011).
Several values for one entry are separate records, joined by “and”; a condition that tells them apart may be missing. Equal values may be shown once. About 610 (0.16%) of roughly 390,000 compounds were called active. Roughly 4% stayed inconclusive and do not appear here. The call rests on the fitted dose curve; in most records, active means well fitted inhibition curve with a large enough effect; inconclusive means small, poorly fitted or top-dose-only effect, or effect the other way, or another doubt; inactive means no such curve, though single readings can be large or run the other way. This is a selection; strong and weak results do not stand in their true shares.

Assay: Nrf2 qHTS screen for inhibitors: counterscreen for cytotoxicity
Settings: A549 ARE-Fluc cells, CellTiter-Fluor viability, 18-24 h; series mostly up to 46 µM; activity change, negative = cytotoxicity: at the top concentration
Method in brief: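 A549 ARE_Fluc cells in 5% FBS OPTI-MEM were exposed to compounds in concentration-response for 18-24 h at 37 deg C. Viability was read by CellTiter-Fluor fluorescence (Ex 405/Em 525) after 30 min, before the luciferase read.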
On the % scale 0 is the no-effect control and ±100 the full control effect; potency means the concentration at half of the fitted maximal effect.

Structure (SMILES) | activity change, negative = cytotoxicity | Potency
Cn1cc(C(=O)N/N=C/C(Br)=C/c2ccccc2)ccc1=O | inactive: 5.06% | –
NC(=NCCCCCCN=C(N)/N=C(\N)Nc1ccc(Cl)cc1)/N=C(\N)Nc1ccc(Cl)cc1 | inactive: -2.22% | –
Nc1nc(=S)c2ncn(C3OC(CO)C(O)C3O)c2[nH]1 (stereo not drawn) | inactive: -1.98% | –
CN(C)c1ccc(/C=C/c2ccc3c4ccccc4ccc3[n+]2-c2ccccc2)cc1 | – | active: 9.2 µM and active: 10.3 µM
Cc1c(N=C/C=C2/N(C)c3ccccc3C2(C)C)c(=O)n(-c2ccccc2)n1C | – | inactive
Cc1ccc(/C=C2\SC(=S)N(CCC(=O)NCCCN3CCOCC3)C2=O)cc1 | – | active: 14.6 µM
CCOC(=O)c1c(C)[nH]c2c1-c1ccccc1C(=O)C2=O | – | active: 23.1 µM
O=C1/C(=C\c2cccs2)SC(=S)N1C1CCS(=O)(=O)C1 (stereo not drawn) | inactive: -12.6% | –
Cc1[nH]c2ccc(C(=O)NCCCN3CCCCC3)cc2c1C | inactive: 13.2% | –
CCOC(=O)C1=CC[C@H]2c3c(c4ccccc4n3C)C(=O)C1N2C(=O)OC(C)(C)C | inactive: -1.29% | –
CCN(CC)CCC(c1ccc2c(c1)OCO2)c1c(OC)cc(OC)c2ccc(=O)oc12 (stereo not drawn) | – | active: 16.4 µM
COc1ccc(Cn2c(C(=O)O)c(CNCc3cccc(OC)c3)c3ccc(C)cc32)cc1 | – | active: 8.2 µM
COc1cccc2c1C(=O)c1c(O)c3c(c(O)c1C2=O)C[C@@](O)(C(=O)CO)C[C@@H]3O[C@H]1C[C@H](N)[C@H](O)[C@H](C)O1 | inactive: -21.6% | –
CCN(CC)CCN1C(=O)Cn2c(C)c(C)c3cccc1c32 | inactive: -1.39% | –
Cc1ccc(N2CC(C(=O)Nc3nccs3)CC2=O)cc1Cl (stereo not drawn) | – | active: 16.4 µM
O=C(O)[C@@H](O)c1ccccc1 | inactive: -1.52% | –
COc1ccc(NS(=O)(=O)c2cc([N+](=O)[O-])ccc2N/N=C\c2c(C)[nH]c3ccccc23)cc1 | inactive: -15.9% | –
O=C1N[C@@H](Cc2ccccc2)COC(=O)[C@H](Cc2ccc(F)cc2)CC/C=C/C[C@@H]1CC(=O)N(CCO)Cc1ccccc1 | inactive: -5.41% | –
CCOC(=O)c1cnc2ccc(OC)cc2c1NCCc1ccc(OC)c(OC)c1 | inactive: -17.2% | –
CC1=NN(c2ccccc2)C(=O)/C1=C/C=C/C=C/N(C)C | – | active: 10.3 µM
C=CCC[C@H](Cc1ccc(F)cc1)C(=O)OC[C@@H](Cc1c[nH]c2ccccc12)NC(=O)[C@@H](CC=C)CC(=O)N[C@H](CO)Cc1ccccc1 | inactive: -13.9% | –
O=C1[C@H](Cc2ccccc2)NCC=CC[C@@H](c2ccc(Cl)cc2)N1Cc1ccc(Cl)cc1 | inactive: -21.4% | –

Structure (SMILES) | activity change, negative = cytotoxicity | Potency
Cc1cccc(N2CCN(C(=O)c3nn(C)c4c3CS(=O)(=O)c3ccccc3-4)CC2C)c1 (stereo not drawn) | inactive: -4.26% | –
Cc1ccc(-n2c(-c3ccco3)nc3c(cnn3-c3ccc(C)cc3)c2=O)cc1 | inactive: 5.78% | –
CCOc1ccc(-c2csc(/C(C#N)=C\c3ccc(O)c([N+](=O)[O-])c3)n2)cc1 | – | active: 16.4 µM
Cc1ccc(N(C)C(=O)CCS(=O)(=O)c2cc3c(cc2Cl)NC(=O)CO3)cc1 | inactive: 1.4% | –
Cc1ccc2nc(-c3ccc(N=Nc4cc(S(=O)(=O)O)c5ccccc5c4O)cc3)sc2c1S(=O)(=O)O | – | active: 13 µM
O=C(N/N=C/C(Br)=C\c1ccccc1)c1cccs1 | inactive: -15.4% | –
O=C1N[C@H](Cc2c[nH]c3ccccc23)COC(=O)[C@H](Cc2ccc(F)cc2)C/C=C\C[C@H]1CC(=O)N(CCO)Cc1ccccc1 | inactive: -11.2% | –
CC1=C/C(=C(\c2ccc(O)c(C)c2)c2ccccc2S(=O)(=O)O)C=CC1=O | inactive: -6.9% | –
COc1ccc(S(=O)(=O)/N=C2/NC(=O)/C(=C/c3ccco3)S2)cc1 | inactive: -9.01% | –
COc1ccc(C(CC(=O)N2CCCC2)c2c(OC)cc(OC)c3ccc(=O)oc23)cc1 (stereo not drawn) | inactive: -12% | –
CCCOc1ccc(C(=O)N(Cc2cccs2)C2CCS(=O)(=O)C2)cc1 (stereo not drawn) | inactive: 7.26% | –
O=C(CCN1C(=O)/C(=C/c2ccco2)SC1=S)Nc1ccc(C(=O)O)c(O)c1 | inactive: -13.3% | –
CC1(C)CC[C@]2(C(=O)n3ccnc3)CC[C@]3(C)[C@H](C(=O)C=C4[C@@]5(C)C=C(C#N)C(=O)C(C)(C)[C@@H]5CC[C@]43C)[C@@H]2C1 | – | active: 6.51 µM
CCOc1ccc(NC(=O)CCCOc2cc(=O)n(C)c3ccccc23)cc1 | inactive: 0.575% | –
CCC1CC=CC2C1C(=O)N(Cc1ccccc1)C2c1ccc(C(F)(F)F)cc1 (stereo not drawn) | inactive: 0.552% | –
Cc1cccc(N2CCN(C(=O)C3CCN(c4ncnc5c4nc4n5CCCCC4)CC3)CC2C)c1 (stereo not drawn) | inactive: -14.2% | –
CC1=CC(C)(C)N2C(=O)C3(NCCc4c3[nH]c3ccccc43)c3cc(C)cc1c32 (stereo not drawn) | – | active: 11.6 µM
COc1cc(OC)c2ccc(=O)oc2c1C(CCN1CCCC(C)C1)c1ccc(N(C)C)cc1 (stereo not drawn) | inactive: -21.4% | –
COc1cc(OC)c2ccc(=O)oc2c1C(CCN1CCCC1)c1ccc(N(C)C)cc1 (stereo not drawn) | inactive: -15.1% | –
CCn1cc(C(=O)NCCCN2CCC(C)CC2)c(=O)c2cc(S(=O)(=O)N(C)C3CCCCC3)ccc21 | inactive: -11.8% | –
Cn1cccc1/C=C1\SC(=S)N(CC(=O)O)C1=O | inactive: -23.2% | –
